Reference: PubChem BioAssay AID651820 (National Center for Advancing Translational Sciences (NCATS), 2012)
In all, about 340,000 compounds went through this assay and about 12,000 (3.5%) were called active. Inconclusive means that the source gave no clear call. Such entries were picked first, then a sample of the others. The call rests on the fitted dose curve; in most records, active means well fitted inhibition curve with a large enough effect; inconclusive means small, poorly fitted or top-dose-only effect, or another doubt; inactive means no such curve, though single readings can be large or run the other way. Potencies of inconclusive entries are left out as doubtful fits.

assay: qHTS Assay for Inhibitors of Hepatitis C Virus (HCV); details: Huh7.5.1 HCVcc-Cre (HCVcc is cell-culture hepatitis C virus) infection, luciferase reporter, 44 h; activity change, negative = inhibition: at 41.8 µM (top of the series) unless noted
Method in brief: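 Seed cells (1,000/well) for 4 h; treat with compound and infect with HCVcc-Cre, moi about 0.5. Incubate 44 h, then detect luciferase activity.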
On the % scale 0 is the no-effect control and ±100 the full control effect; potency means the concentration at half of the fitted maximal effect; tags describe the fitted curve by direction and shape.

Row | SMILES | Potency | activity change, negative = inhibition
1 | COc1ccc(CC(=O)Nc2ccc(S(=O)(=O)N3CCC(C)CC3)cc2)c(OC)c1 | inconclusive [inhibitor, single point] | –
2 | CCOc1ccc2nc(Nc3nc4ccc(NC(C)=O)cc4s3)sc2c1 | inconclusive [inhibitor, single point] | –
3 | O=C(NCCc1ccc(F)cc1)C(=O)Nc1cc2c3c(c1)CC(=O)N3CCC2 | inconclusive [inhibitor, full curve, poor fit] | –
4 | COc1ccc(CCn2c(C3CCCCC3)nc3c(c(=O)c4ccccc4n3C)c2=O)cc1OC | inconclusive [inhibitor, single point] | –
5 | Oc1ccccc1N1CCN(c2ncnc3scc(-c4ccc(F)cc4)c23)CC1 | active: 11.2 µM | –
6 | N#Cc1ccc2c(c1)NC(=O)C1CCCN21 (stereo unspecified) | inconclusive [inhibitor, single point] | –
7 | Cc1cc(N/N=C/c2ccccc2F)nc(NCc2ccccc2)n1 | inconclusive [inhibitor, partial curve] | –
8 | COc1cc(C2CC(=O)Nc3cc(C)c(C)cc32)cc(OC)c1OC (stereo unspecified) | inconclusive [inhibitor, single point] | –
9 | CCOc1cc(OCC)cc(C(=O)NCCCN2CCOCC2)c1 | inconclusive [inhibitor, partial curve, poor fit] | –
10 | COc1ccc(-c2nn3c(-c4ccco4)nnc3s2)cc1OC | – | inactive: -14.4%
11 | O=C1CCCC(=O)N1c1ccc(NCCOCCO)c([N+](=O)[O-])c1 | inconclusive [inhibitor, partial curve, poor fit] | –
12 | COc1ccc(S(=O)(=O)NC(C)CCc2ccccc2)cc1 (stereo unspecified) | inconclusive [inhibitor, single point] | –
13 | O=C(Cc1ccccc1)n1nc(-c2ccco2)nc1SCc1ccccc1 | – | inactive: 5.22%
14 | Cc1ccc(S(=O)(=O)N2Cc3ccccc3CC2C(=O)Nn2cnnc2)cc1 (stereo unspecified) | – | inactive: 5.88%
15 | O=C(NN=Cc1ccccc1O)C1CC1 | – | inactive: 1.46%
16 | CCOC(=O)c1[nH]c(C)c(C(=O)NC2CCCC2)c1C | – | inactive: 4.46%
17 | CCOc1ccc(-c2c(C(=O)N/N=C/c3ccc(C)cc3)nnn2-c2nonc2N)cc1 | inconclusive [inhibitor, partial curve] | –
18 | CCOc1ccc(NC(=O)COc2ccccc2C(=O)NCc2ccccc2)cc1 | inconclusive [inhibitor, partial curve] | –
19 | O=C(COC(=O)c1ccccc1NC(=O)c1ccco1)NC1CCS(=O)(=O)C1 (stereo unspecified) | inconclusive [inhibitor, single point] | –
20 | Cc1ccc(Nc2nnc(SCC(=O)NC3CCCc4ccccc43)s2)cc1 (stereo unspecified) | inconclusive [inhibitor, single point] | –
21 | C(=N\Nc1ccccn1)/c1ccc2c(c1)OCCO2 | inconclusive [inhibitor, single point] | –
22 | COC(=O)C1=C(C)NC(=O)/C1=C\c1cc(C)n(-c2ccccc2C)c1C | inconclusive [inhibitor, partial curve] | –
23 | Cc1nn(-c2ccc(F)cc2)c(Cl)c1/C=N/NC(=O)c1ccc(O)cc1 | inconclusive [inhibitor, partial curve] | –
24 | COc1ccccc1Nc1nc(N2CCOCC2)nc(N2CCOCC2)n1 | inconclusive [inhibitor, partial curve] | –

Row | SMILES | Potency | activity change, negative = inhibition
25 | Cn1c(=O)c2c(nc(NCc3ccco3)n2C/C=C/c2ccccc2)n(C)c1=O | active: 2.51 µM | –
26 | COc1cc(S(=O)(=O)NCc2ccncc2)c(OC)cc1C | – | inactive: -14.5%
27 | CCCC[C@H](CN[C@@H](CNC)[C@H](C)CC)NCCC12CCC(CC1)C2 | inconclusive [inhibitor, single point] | –
28 | O=C1CC(C(=O)N2CCN(c3ccccc3)CC2)CN1Cc1ccccc1 (stereo unspecified) | – | inactive: 13.2%
29 | CC(NC(=O)c1ccnc(C(C)(C)C)c1)c1ccccc1 (stereo unspecified) | inconclusive [inhibitor, partial curve] | –
30 | COc1ccc([N+](=O)[O-])cc1-c1[nH]c(-c2ccc(C(=O)O)cc2)nc1-c1ccccc1 | – | inactive: 8.76%
31 | CCc1ccc(Nc2ncc3c(n2)CC(c2ccco2)CC3=O)cc1 (stereo unspecified) | inconclusive [inhibitor, single point] | –
32 | COc1ccc(C(C)=O)cc1COC(=O)c1ccc2c(c1)OCCO2 | active: 11.2 µM | –
33 | COc1ccc(C2N(c3ccc(Cl)cc3)N=C(C(C)=O)N(C)N2C(C)=O)cc1 (stereo unspecified) | inconclusive [inhibitor, single point] | –
34 | C=CCc1c(NCCO)nc(C)[nH]c1=O | – | inactive: 6.21%
35 | COc1ccc(C(=O)NCC(=O)N/N=C/C(C)=C/c2ccccc2)cc1OC | inconclusive [inhibitor, partial curve] | –
36 | COc1ccc(OC)c(C(=O)CN2C(=O)NC(C)(c3ccccc3)C2=O)c1 (stereo unspecified) | – | inactive: 1.52%
37 | CCc1ccc(Nc2nnc(SCC(=O)NC(=O)c3cccn3C)s2)cc1 | inconclusive [inhibitor, single point] | –
38 | CCN(C(=O)c1cc(Cl)ccc1Cl)C1CCS(=O)(=O)C1 (stereo unspecified) | – | inactive: 5.15% [at 8.37 µM]
39 | c1ccc(-c2nnc(SCc3nnc(-c4cccs4)o3)o2)cc1 | – | inactive: -6.97%
40 | O=C(O)c1cccnc1C(=O)O | active: 0.708 µM | –
41 | Cc1cc2cc(C)c3nnc(SCC(=O)N4CCCc5ccccc54)n3c2cc1C | – | inactive: 6.88%
42 | O=C(CSCC(=O)N1CCN(c2ccccc2)CC1)Nc1nc(-c2ccc(Cl)s2)cs1 | active: 6.31 µM | –
43 | COCCN1C(=O)c2cc(C(=O)Nc3cccc(F)c3)ccc2C1Nc1cccc(F)c1 (stereo unspecified) | inconclusive [inhibitor, partial curve] | –
44 | Cc1cccc(C(=O)OCN2C(=O)c3ccccc3C2=O)c1[N+](=O)[O-] | – | inactive: 4.45%
45 | O=S(=O)(c1ccc2ncn(O)c2c1)N1CCOCC1 | – | inactive: -6.91%
46 | COc1ccccc1-c1c(C)nn2c(NCCN3CCCC3)cc(C)nc12 | inconclusive [inhibitor, single point] | –
47 | COc1ccc(/C=C2\SC(=O)N(CCNC(=O)Cn3cnnn3)C2=O)cc1 | inconclusive [inhibitor, single point] | –
48 | C#CCOCCOCCOCCNc1nc(N2CCN(C(=O)Cn3cc(CCCN=C(N)N)nn3)CC2)nc(N2CCN(C(=O)Cn3cc(CCCN=C(N)N)nn3)CC2)n1 | – | inactive: -3.8% [at 8.37 µM]

Row | SMILES | Potency | activity change, negative = inhibition
49 | CC1CN(C(=O)c2cccc(Oc3ccccc3)c2)CC(C)O1 (stereo unspecified) | – | inactive: 4.34%
50 | Cc1cc(C)cc(OCC(=O)Nc2nc(-c3cccnc3)cs2)c1 | inconclusive [inhibitor, partial curve] | –
51 | O=C(NCCN1CCOCC1)c1ccc(/C=C2\Sc3ccccc3N(Cc3ccccc3F)C2=O)cc1 | inconclusive [inhibitor, single point] | –
52 | O=C(Nc1ccccc1N1CCN(C(=O)c2ccccc2)CC1)c1cc(Br)ccc1Cl | inconclusive [inhibitor, single point] | –
53 | COc1ccc(Nc2nc(NCC3CCCO3)c3ccccc3n2)c(OC)c1 (stereo unspecified) | active: 10 µM | –
54 | COc1ccc(C(CNC(=O)CSc2ccccc2C)N(C)C)cc1 (stereo unspecified) | – | inactive: 19.6%
55 | CCNS(=O)(=O)c1ccc(NC(=O)c2ccccc2)cc1 | – | inactive: -17.6%
56 | CCCCCn1c(=O)[nH]c2cc(C(=O)NCCN3CCC(C)CC3)ccc2c1=O | inconclusive [inhibitor, full curve] | –
57 | C=CCSc1nc2ccccc2c2nc(-c3ccccc3)nn12 | inconclusive [inhibitor, full curve] | –
58 | Cc1ccc2nc(SC(C(=O)Nc3ccc(F)cc3)c3ccccc3)[nH]c2c1 (stereo unspecified) | inconclusive [inhibitor, single point] | –
59 | O=C(Nc1nnc(-c2ccc(F)cc2)o1)c1cccc([N+](=O)[O-])c1 | active: 12.6 µM | –
60 | CC(C)C(NC(=O)c1ccco1)C(=O)OCc1cc([N+](=O)[O-])cc2c1OCOC2 (stereo unspecified) | inconclusive [inhibitor, partial curve] | –
61 | O=C(O)c1cc([N+](=O)[O-])ccc1Oc1ccccc1 | – | inactive: 8.27%
62 | NC(=O)CNc1n[nH]c(=S)[nH]c1=O | – | inactive: 10.5%
63 | CN(C)S(=O)(=O)c1cccc(COC(=O)CNC(=O)c2ccc(Br)o2)c1 | inconclusive [inhibitor, single point] | –
64 | Cc1ccc(-c2nc(CN(CC3CCC3)CC3CCCO3)c(C)o2)s1 (stereo unspecified) | inconclusive [inhibitor, single point] | –
65 | COc1ccc2nc(N(CCN(C)C)C(=O)c3ccc4c(c3)OCCO4)sc2c1 | inconclusive [inhibitor, partial curve] | –
66 | COCC(=O)N(Cc1cc2cc(OC)ccc2[nH]c1=O)c1ccc(C)cc1 | – | inactive: 25.8%
67 | CC(C)N(Cc1ccco1)/N=C/c1c(O)n(Cc2ccccc2)c(=O)[nH]c1=O | inconclusive [inhibitor, single point] | –
68 | CC(=O)NNC(=S)NC(=O)C(c1ccccc1)c1ccccc1 | inconclusive [inhibitor, single point] | –
69 | CCN1N=C(c2ccccc2)Cn2c1nc1ccccc12 | inconclusive [inhibitor, single point] | –
70 | Cc1noc(C)c1COc1ccc(C(=O)NNC(=O)c2ccccc2)cc1 | inconclusive [inhibitor, full curve] | –
71 | COC(=O)CCCC1=CC2=C(c3ccccc3)C(=O)C(C)(OC(=O)C3CCCC3)C(=O)C2=CN1CCc1c[nH]c2ccccc12 (stereo unspecified) | inconclusive [inhibitor, single point] | –
